# Measured values reported in PubChem BioAssay AID1460 (National Center for Advancing Translational Sciences (NCATS), 2008).
# Screen size: about 270,000 compounds; about 5,800 (2.1%) were called active. This list was built around the results that the source calls inconclusive (neither active nor inactive); the mix of calls is not that of the screen. Calls follow the shape of the dose curve; as a rule, active = well fitted inhibition curve with a large enough effect; inconclusive = small, poorly fitted or top-dose-only effect; inactive = flat fitted curve, though single readings scatter. A potency beside an inconclusive call is a rough fit, not a confirmed value.
# Target: Microtubule-associated protein tau (Homo sapiens) (UniProt P10636)
# Experiment: qHTS for Inhibitors of Tau Fibril Formation, Thioflavin T Binding; also: nearly all actives have a fitted effect of over 55% in size
# Settings: recombinant tau K18 P301L (four-repeat tau fragment), heparin-induced fibrillization, ThT fluorescence; series mostly up to 57.4 µM; activity, negative = inhibition: at the top concentration
# In short: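 Aggregation was driven by heparin (20 uM final) acting on recombinant tau […] bearing P301L in 100 mM sodium acetate pH 7; fibrils were detected with Thioflavin T.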
# % is scaled to controls: 0 for no effect and ±100 for the full control effect; potency is read from the fitted curve at half-maximal effect; tags tell the direction and shape of the fitted curve.
# Chain of UniProt P10636 (P10636 whole entry, looked up): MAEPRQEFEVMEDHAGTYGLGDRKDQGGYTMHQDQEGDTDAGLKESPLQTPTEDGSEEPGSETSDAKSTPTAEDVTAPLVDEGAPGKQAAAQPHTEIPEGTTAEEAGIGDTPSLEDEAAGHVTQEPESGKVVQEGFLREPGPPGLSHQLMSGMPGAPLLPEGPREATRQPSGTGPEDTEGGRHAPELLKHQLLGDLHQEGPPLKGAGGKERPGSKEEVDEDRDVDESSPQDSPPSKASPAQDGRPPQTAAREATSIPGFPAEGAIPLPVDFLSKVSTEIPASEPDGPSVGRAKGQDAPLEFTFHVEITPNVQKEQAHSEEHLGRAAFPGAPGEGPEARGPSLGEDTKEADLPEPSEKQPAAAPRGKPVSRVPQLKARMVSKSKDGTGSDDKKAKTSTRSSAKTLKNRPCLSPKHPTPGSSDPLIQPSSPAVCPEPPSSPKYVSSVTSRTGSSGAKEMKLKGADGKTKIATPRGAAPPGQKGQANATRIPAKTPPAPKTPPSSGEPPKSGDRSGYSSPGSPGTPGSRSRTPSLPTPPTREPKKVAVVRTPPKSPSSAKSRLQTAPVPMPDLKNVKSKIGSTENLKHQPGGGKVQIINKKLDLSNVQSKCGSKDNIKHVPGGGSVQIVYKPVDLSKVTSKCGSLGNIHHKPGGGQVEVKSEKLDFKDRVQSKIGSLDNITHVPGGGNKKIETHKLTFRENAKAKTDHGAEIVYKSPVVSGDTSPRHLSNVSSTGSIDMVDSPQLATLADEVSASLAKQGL
SMILES,Potency,"activity, negative = inhibition"
CCOC(=O)c1c(-c2cccs2)csc1N,"inconclusive: 17.8 µM [inhibitor, partial curve]",–
Cc1cc2c(cc1S(=O)(=O)CCC(=O)N1CCCC(C)C1)OCC(=O)N2 (centres undefined),–,inactive: -15.7%
CC(=O)c1ccc(-c2nc3ccccc3n2C)o1,"inconclusive: 12.6 µM [inhibitor, partial curve]",–
O=C(Nc1nc2ccc(F)cc2s1)c1cccs1,–,inactive: 6.81%
COc1ccc(-c2noc(CSc3ccc(C)cc3)n2)cc1,"inconclusive: 20 µM [inhibitor, partial curve, poor fit]",–
COc1ccc(NC(=O)Cn2c(=O)n(Cc3ccco3)c(=O)c3cc(OC)c(OC)cc32)cc1,–,inactive: -0.1%
COc1ccc2cc(-c3nc(Cl)c4c5c(sc4n3)CCCC5)c(=O)oc2c1,"inconclusive: 5.01 µM [inhibitor, partial curve]",–
COc1cc(O)oc1C=Nc1ccc(Oc2ccccc2)cc1,"inconclusive: 8.91 µM [inhibitor, partial curve]",–
CCOC(=O)c1cc2sccc2n1CC(=O)N1CCCc2ccccc21,–,inactive: -16.3%
C(=C\c1ccccc1)/C=N/Nc1nncc(-c2ccccc2)n1,"inconclusive: 2.82 µM [inhibitor, full curve]",–
COc1ccc2c(Cl)c(-c3nnco3)sc2c1,"inconclusive: 4.47 µM [inhibitor, full curve]",–
O=C(CSCC(=O)N1CCN(c2ccccc2)CC1)Nc1nc(-c2ccc(Cl)s2)cs1,"inconclusive: 1 µM [inhibitor, partial curve]",–
COC(CNC(=O)c1ccc2c(c1)ncn2-c1ccc(F)c(F)c1)OC,–,inactive: -9.43%
COc1ccc(NC(=O)CSc2nncn2C)cc1OC,–,inactive: -3.21%
O=C(Nc1nnc(-c2ccc(F)cc2)o1)c1cccc([N+](=O)[O-])c1,"inconclusive: 10 µM [inhibitor, partial curve]",–
Cn1c(CCN2CCOCC2)nc2cc(NC(=O)c3cccs3)ccc21,"inconclusive: 39.8 µM [inhibitor, single point]",–
COc1ccc(/C=C2\SC(=O)N(CCNC(=O)Cn3cnnn3)C2=O)cc1,"inconclusive: 20 µM [inhibitor, partial curve, poor fit]",–
COc1ccc(NC(=O)CN(C)S(=O)(=O)c2ccc3c(c2)CCC(=O)N3)c(OC)c1,"inconclusive: 8.91 µM [inhibitor, single point]",–
NCCC[C@@H](CC(=O)N[C@@H]1CCNC[C@H]1C(=O)N[C@H](CC(=O)N[C@@H](CCC(=O)O)CC(=O)O)Cc1ccccc1)NC(=O)C[C@H](CO)NC(=O)[C@@H]1CCCC[C@H]1N,–,inactive: -5.8%
COc1ccc(NC(=O)C(=O)NCCN2CCN(C(=O)c3cccs3)CC2)cc1,"inconclusive: 11.2 µM [inhibitor, partial curve]",–
COC(=O)[C@@]1(Cc2ccc(F)cc2)[C@H]2c3cc(C(=O)N(C)C)n(Cc4cccc5ccccc45)c3C[C@H]2CN1C(=O)c1ccccc1,–,inactive: -16.7%
Cc1cccc(Nc2c(-c3cccs3)nc3nc(C)cc(C)n23)c1,–,inactive: -13.4%
CCN1N=C(c2ccccc2)Cn2c1nc1ccccc12,"inconclusive: 17.8 µM [inhibitor, partial curve]",–

SMILES,Potency,"activity, negative = inhibition"
COC(=O)CCCC1=CC2=C(c3ccccc3)C(=O)C(C)(OC(=O)C3CCCC3)C(=O)C2=CN1CCc1c[nH]c2ccccc12 (centres undefined),"inconclusive: 14.1 µM [inhibitor, partial curve]",–
CCCCn1c(=N)c(S(=O)(=O)c2ccc(Cl)cc2)cc2c(=O)n3cccc(C)c3nc21,–,inactive: -5.37%
CCc1cc(C(=O)N/N=C/c2c(C)[nH]c3ccccc23)cs1,"inconclusive: 4.47 µM [inhibitor, partial curve]",–
O=C(Cc1ccc(Cl)cc1)NN1C(=O)c2ccccc2C1=O,–,inactive: -2.49%
CCOc1ccc(/C(CCC(=O)O)=N/NC(=S)NCCc2ccccc2)cc1,"inconclusive: 6.31 µM [inhibitor, full curve, poor fit]",–
O=C1NNC(c2ccccc2)=N/C1=C\c1ccccc1Cl,"inconclusive: 31.6 µM [inhibitor, partial curve]",–
COc1ccc(-c2csc(Nc3ccc(S(N)(=O)=O)cc3)n2)cc1,"inconclusive: 3.16 µM [inhibitor, partial curve]",–
Cc1cc(/C=N/Nc2nc(N3CCOCC3)nc(N3CCOCC3)n2)c(C)n1-c1ccccc1,"inconclusive: 28.2 µM [inhibitor, partial curve]",–
CCOc1cc(C(N)=O)cc(Br)c1OCc1ccccc1,–,inactive: -2.25%
COc1cc2c(cc1NC(=S)Nc1cccc(C(F)(F)F)c1)oc1ccccc12,"inconclusive: 7.08 µM [inhibitor, partial curve]",–
Cc1cc(C)n(-c2ccc(C(=O)OCC(=O)c3c(N)n(C)c(=O)n(C)c3=O)cc2)n1,"inconclusive: 8.91 µM [inhibitor, partial curve, poor fit]",–
O=c1[nH]cnc2c1ncn2C1CC(O)C(CO)O1 (centres undefined),–,inactive: -1.25%
CCN1C(=O)c2cccc3c(NC(=O)c4ccc5c(c4)OCCO5)ccc1c23,"inconclusive: 0.794 µM [inhibitor, full curve]",–
Cc1ccc(NC(=O)c2ccc(OC(=O)COc3ccc(Cl)c(C)c3)cc2)cc1,"inconclusive: 10 µM [inhibitor, partial curve]",–
COc1cccc(-c2nc(NCCN3CCOCC3)c3ccccc3n2)c1O,"inconclusive: 20 µM [inhibitor, partial curve]",–
COc1ccc(OC)c(Nc2nc(-c3sc(NC(=O)CC(C)C)nc3C)cs2)c1,"inconclusive: 10 µM [inhibitor, partial curve]",–
CC1(OC(=O)c2cccs2)C(=O)C=C2C=C(c3ccc(C#N)cc3)OC=C2C1=O (centres undefined),active: 28.2 µM,–
COc1ccc(-c2nc(C#N)c(N3CCCCCC3)o2)cc1,"inconclusive: 39.8 µM [inhibitor, partial curve]",–
COc1cc(OC)c2c(C)c(CC(=O)NCCc3ccccc3OC)c(=O)oc2c1,–,inactive: 3.71%
Cc1noc(/C=C/c2ccc(-c3ccccc3Cl)o2)c1[N+](=O)[O-],"inconclusive: 1.78 µM [inhibitor, full curve]",–
CCN1C(=O)c2cccc3c(NC(=O)C(C)(C)C)ccc1c23,–,inactive: -13.5%
CCOC(=O)c1c(C)[nH]c(CCC(=O)Nc2c(Cl)cc(OC)cc2OC)c1C,"inconclusive: 10 µM [inhibitor, partial curve]",–
Cc1cccc2sc(N3CCN(C(=O)CS(=O)(=O)c4ccc(F)cc4)CC3)nc12,"inconclusive: 10 µM [inhibitor, partial curve]",–

SMILES,Potency,"activity, negative = inhibition"
CN(C)c1ccc(/C=C/c2ccc3ccccc3n2)cc1,"inconclusive: 0.562 µM [inhibitor, full curve]",–
CCOCCCNC(=O)CN1C(=O)CSc2cc(S(=O)(=O)N3CCCCCC3)ccc21,"inconclusive: 15.8 µM [inhibitor, partial curve]",–
O=C1c2cccc3cccc(c23)C(=O)N1CC1CCN(CC(O)COc2ccc3ccccc3c2)CC1 (centres undefined),active: 12.6 µM,–
COC(=O)c1oc2ccc(OC)cc2c1N,–,inactive: -15.4%
Cc1nc(Oc2cccc(Cl)c2)c2oc3ccccc3c2n1,"inconclusive: 22.4 µM [inhibitor, partial curve, poor fit]",–
COCc1cc(C)nc(SCC(=O)c2ccc(O)c(O)c2)c1C#N,"inconclusive: 31.6 µM [inhibitor, partial curve]",–
Nc1c(C(=O)NCCN2CCOCC2)c2nc3ccccc3nc2n1-c1ccc2c(c1)OCO2,"inconclusive: 12.6 µM [inhibitor, partial curve]",–
CC(C)Oc1ccc(CC(=O)NNC(=S)Nc2ccccc2)cc1,–,inactive: -4.91%
CC1(C)Cc2ccccc2C(/C(=N\Nc2cccc(Cl)c2)C(N)=O)=N1,active: 14.1 µM,–
CC(C)CC(=O)NC(=S)Nc1ccccc1F,–,inactive: -8.36%
CC(C)=CCC/C(C)=C/CO/N=C1/C[C@@H](O)[C@@H](O)[C@@H]2[C@@H]3C(=O)N([C@@H](C)c4ccccc4)C(=O)[C@H]3CC[C@H]12,–,inactive: -2.11% [at 11.5 µM]
COc1ccccc1OCCCOc1ccc(C)cc1Br,"inconclusive: 14.1 µM [inhibitor, partial curve]",–
O=C1ON=C(c2ccccc2)/C1=C/c1ccc(OS(=O)(=O)c2ccccc2)cc1,"inconclusive: 31.6 µM [inhibitor, single point]",–
CN1CCN(c2ccc([N+](=O)[O-])cc2/C=N/NC(=O)c2cccc([N+](=O)[O-])c2)CC1,"inconclusive: 20 µM [inhibitor, partial curve]",–
O=S1(=O)C=C(Sc2nc3ccccc3s2)c2ccccc21,active: 10 µM,–
CC1(CC(=O)N/N=C/c2ccc(OCc3ccc(Cl)cc3Cl)cc2)OCCCO1,"inconclusive: 14.1 µM [inhibitor, partial curve]",–
CC1=NOC(=O)/C1=C\c1ccc(-c2ccc(Br)cc2)o1,active: 28.2 µM,–
Cc1nc(SCC(=O)NC(C)(C)C)c2c(-c3cccs3)csc2n1,–,inactive: -11.3%
Cc1cc[n+](-c2ccccc2)c2ccccc12,"inconclusive: 25.1 µM [inhibitor, partial curve]",–
Cc1ccc(C)c(N2CCN(C(=O)C(Cc3ccccc3)n3cccc3)CC2)c1 (centres undefined),"inconclusive: 31.6 µM [inhibitor, partial curve]",–
C/C(=N\NC(=O)CCc1c[nH]c2ccccc12)c1ccc([N+](=O)[O-])cc1,active: 10 µM,–
COc1ccc(CCNC(=O)c2cc3sc(Cl)cc3n2C)cc1OC,"inconclusive: 14.1 µM [inhibitor, partial curve]",–
COC(=O)c1cccc(Nc2c(-c3ccc(OC)cc3)nc3nc[nH]n23)c1,"inconclusive: 31.6 µM [inhibitor, single point]",–
